The campaign covered roughly 110,000 compounds. About 40 (0.04%) were called active. The shares of active, inactive and inconclusive entries below differ from those in the screen. The call rests on the fitted dose curve; in most records, active means well fitted curve in the direction sought with a large enough effect in the signal ratio (not every such curve was filed as active); inconclusive means small, poorly fitted or top-dose-only effect, or a change in a side signal; inactive means flat fitted curve, though single readings scatter; the % refers to the signal ratio. Potencies beside an inconclusive call are fits to weak or partial responses and may not hold up.
Test: IkB Signaling;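 on IkBa stabilization activation: 0% = basal untreated cells and 100% = reference inhibitor full response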
Settings: ABC-DLBCL IkBa-CBG/CBR dual luciferase ratio (green luciferase fused to IkBa over red control in OCI-Ly3 lymphoma cells), 4 h; IkBa stabilization activation: at 57.1 µM (top of the series), scaled: untreated 0%, proteasome inhibitor 100% unless noted
In short: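 Curves were fitted separately to fusion (green), unfused (red) and ratio luminescence, then classed by r2, magnitude and activity. Cells: OCI-Ly3, 4 h compound plus doxycycline at 37C; 10 uM MG-132 defined full response.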
Potency means the concentration at half of the fitted maximal effect.

SMILES	IkBa stabilization activation	Potency
CCNc1ncc2nc(C)c(=O)n(C)c2n1	inactive: -0.953% [at 11.4 µM, scaled: untreated 0%, proteasome inhibitor 100%]	
CCOC(=O)C1CCCN(C(=O)Cn2ncc3c4ccccc4n(Cc4ccc(F)cc4)c3c2=O)C1 (stereo not given)	inconclusive: 0.195% [signal inhibitor]	
O=C(COc1ccccc1)Nc1sc2c(c1C(=O)Nc1ccccc1)CCCCC2		inconclusive: 15.8 µM [signal inhibitor, partial curve]
Cc1ccc(-c2nnn(CC(=O)N(CC(=O)NCC3CCCO3)c3ccc(F)c(Cl)c3)n2)o1 (stereo not given)	inconclusive: 1.79% [signal inhibitor]	
CC(C)(C)c1ccc(C(=O)Nc2ccc(OCc3cc(=O)n4ccsc4n3)cc2)cc1	inconclusive: 1.74% [signal inhibitor]	
O=C(Nc1nc(-c2ccc3c(c2)OCO3)cs1)C1CC1	inactive: 3.04%	
Cc1cc(N2CCN(c3ccccc3)CC2)n2cnnc2n1	inconclusive: -1.86% [signal inhibitor]	
CCCN1CCN(CCCNC(=O)c2ccc3c(c2)sc2nc(-c4ccc(OCC)cc4)cn23)CC1	inconclusive: -1.03% [signal inhibitor]	
CCOc1ccc(-c2cn3c(n2)sc2cc(C(=O)N4CCCC(C)C4)ccc23)cc1 (stereo not given)	inconclusive: 2.06% [signal inhibitor]	
Cc1nc(N2CCOCC2)c2c(C(=O)N(C)c3ccccc3)c(C)oc2n1	inactive: 1.77%	
Cc1cc(C)cc(OCC(=O)N(Cc2ccc(Cl)cc2)C2CCS(=O)(=O)C2)c1 (stereo not given)	inconclusive: 11.8% [signal inhibitor]	
COc1ccccc1CNC(=O)C1CCN(C2=NS(=O)(=O)C(c3ccc(C)c(C)c3)=C2C)CC1	inactive: -2.76%	
COC(=O)C1C(=O)c2c([nH]c(C(=O)OCC3CCCO3)c2C)CC1C (stereo not given)	inactive: -2.72%	
COc1cc(C2=NOC(C(=O)NCc3ccc(F)cc3)C2)cc(OC)c1OC (stereo not given)		inconclusive: 12.6 µM [signal inhibitor, partial curve]
Cc1ccccc1S(=O)(=O)Cc1ccc(C(=O)NCCc2ccccc2)o1	inactive: -0.51%	
Cc1ccc2c(c1)-c1c(cnn1CC(=O)N1CCN(c3cc(C)ccc3C)CC1)CO2	inconclusive: 4.51% [signal inhibitor]	
CCOC(=O)N1CCC(Nc2ncnc3c2cnn3-c2ccccc2)CC1	inconclusive: -0.203% [signal inhibitor]	
CC(C)N1CCc2c(sc(NC(=O)c3ccc(S(=O)(=O)N(C)C4CCCCC4)cc3)c2C(N)=O)C1	inconclusive: -3.65% [signal inhibitor]	
Cn1nc(-c2ccccc2F)c2cc(C(=O)N3CCN(C(=O)c4ccco4)CC3)sc21	inconclusive: 1.84% [signal inhibitor]	
COCCc1nn2c(=O)cc(COC(=O)c3ccco3)nc2s1	inconclusive: 15.5% [signal inhibitor]	
COc1cccc(-c2nn(C)c3sc(C(=O)NCc4ccc(C)o4)cc23)c1	inconclusive: 4.25% [signal inhibitor]	
CSc1cccc(NC(=O)CN(c2cc(C)ccc2C)S(C)(=O)=O)c1	inconclusive: 2.02% [signal inhibitor]	

SMILES	IkBa stabilization activation	Potency
Cc1cccc(-c2nc(CS(=O)CC(=O)NCc3ccc(Cl)cc3)c(C)o2)c1 (stereo not given)	inconclusive: 1.4% [signal inhibitor]	
O=C(O)CCC(=O)c1ccc2c(c1)OCCCO2	inactive: 3.76%	
CCN(CC)CCn1c(=N)n(CCOc2ccccc2Cl)c2ccccc21	inconclusive: 5.66% [signal inhibitor]	
FC(F)(F)c1ccccc1Cl	inactive: 3.14%	
O=C(NCC(c1cccnc1)N1CCOCC1)C(=O)Nc1ccc(Cl)cc1 (stereo not given)	inconclusive: 1.67% [signal inhibitor]	
CCOC(=O)C1CCCN(c2ncnc3c2oc2ccccc23)C1 (stereo not given)	inactive: 0.172%	
COc1cc(CSc2ncc(CO)n2Cc2ccc(C)cc2)cc(OC)c1	inactive: 2.54%	
CCn1nc(NC(=O)c2cccnc2)c2cc3cccc(C)c3nc21	inactive: -2.41%	
O=C(NCCC1=CCCCC1)C1CCN(C(=O)N2CCOc3ccccc32)CC1	inconclusive: 1.01% [signal inhibitor]	
COc1ccc(OC)c(NC(=O)Cn2ncc3c2-c2ccccc2OC3)c1	inactive: -0.418%	
Clc1ccccc1-c1nnc2sc(-c3cccs3)nn12	inconclusive: 6.43% [signal inhibitor]	
CCOc1ccc(NC(=O)Cn2c(=O)cc(C)c3c(C)nn(C)c32)cc1	inconclusive: 2.42% [signal inhibitor]	
CC[C@H](C)[C@H](N)C1=N[C@H](C(=O)N[C@@H](CC(C)C)C(=O)N[C@@H](CCC(=O)O)C(=O)N[C@@H](C(=O)N[C@H]2CCCCNC(=O)[C@@H](CC(N)=O)NC(=O)[C@@H](CC(=O)O)NC(=O)[C@@H](Cc3cnc[nH]3)NC(=O)[C@@H](Cc3ccccc3)NC(=O)[C@@H]([C@@H](C)CC)NC(=O)[C@@H](CCCN)NC2=O)[C@@H](C)CC)CS1	inactive: 1.5% [at 25.6 µM, scaled: untreated 0%, proteasome inhibitor 100%]	
Cc1cc(C(=O)CN2C(=O)c3ccccc3S2(=O)=O)c(C)n1-c1ccccc1	inconclusive: 2.6% [signal inhibitor]	
O=C(CCCSc1nc2ccccc2s1)Nc1nccs1	inconclusive: -0.282% [signal inhibitor]	
Cc1csc2nc(-c3ccc(NS(=O)(=O)c4cccc(F)c4)cc3)cn12	inconclusive: 1.23% [signal inhibitor]	
Cc1c(CN(C)C(=O)c2cc(-c3ccccc3)nc3ccc(Br)cc23)cnn1C		inconclusive: 15.8 µM [signal inhibitor]
CCCOc1ccc(C2=NC(c3ccncc3)=Nc3ccc(C)cc3N2)cc1	inconclusive: -2.71% [signal inhibitor]	
Cc1ccc(-c2n[nH]c3c2C(c2ccccc2Cl)N(c2ccc(C(=O)O)cc2)C3=O)cc1 (stereo not given)	inconclusive: -3.64% [signal inhibitor]	
O=C1C2C3C=CC(C3)C2C(=O)N1CNc1ccc(O)cc1 (stereo not given)		inconclusive: 31.6 µM [rising, single point]
COc1cccc(-c2cc(NCc3cccc(C)c3)ncn2)c1	inactive: 1.33% [at 11.4 µM, scaled: untreated 0%, proteasome inhibitor 100%]	
COc1ccc(S(=O)(=O)Nc2cccc(-c3ccc(N4CCCCCC4)nn3)c2)cc1F	inactive: -0.189%	

SMILES	IkBa stabilization activation	Potency
CC(C)c1ccc(S(=O)(=O)c2cn(CC(=O)Nc3ccc(F)cc3)c3ccccc3c2=O)cc1	inconclusive: 3.74% [signal inhibitor]	
COc1ccc(Cl)cc1NC(=O)CSc1nnc2[nH]c(=O)cc(C)n12	inconclusive: 9.6% [signal inhibitor]	
O=S(=O)(O)c1cc(N=[N+]([O-])c2cc(S(=O)(=O)O)c3ccccc3c2)cc2ccccc12	inactive: 5.52% [at 11.4 µM, scaled: untreated 0%, proteasome inhibitor 100%]	
COc1ccc(-c2nc3cnc(N4CCN(C)CC4)nc3n(Cc3ccc(F)cc3)c2=O)cc1	inactive: -1.43% [at 11.4 µM, scaled: untreated 0%, proteasome inhibitor 100%]	
O=c1c2c(-c3ccco3)csc2nc(SCc2cn3cccnc3n2)n1-c1ccccc1	inactive: 0.421%	
COC(=O)c1cc(S(=O)(=O)N2CCN(c3cc(Cl)ccc3C)CC2)c[nH]1	inconclusive: 3.3% [signal inhibitor]	
Cc1ccccc1-c1nc(N2CCOCC2)c2ccccc2n1	inactive: -0.378% [at 11.4 µM, scaled: untreated 0%, proteasome inhibitor 100%]	
COc1cc2c(=O)c(C(=O)c3ccc(F)cc3)cn(Cc3cccc(F)c3)c2cc1OC	inconclusive: 2.15% [signal inhibitor]	
CC(=O)Nc1nn(C)c2nc3cc(C)ccc3cc12	inactive: -1.98%	
O=C(O)/C=C\C(=O)Nc1ncn[nH]1	inactive: -0.205% [at 11.4 µM, scaled: untreated 0%, proteasome inhibitor 100%]	
O=C(CN1CCN(Cc2ccc(F)cc2Cl)C1=O)NCCc1ccc(Cl)cc1	inconclusive: 8% [signal inhibitor]	
CCOc1ccc(C(=O)Nc2ccc3oc(-c4cccc5ccccc45)nc3c2)cc1	inactive: 7.25%	
O=C1CN(C(=O)c2ccc(S(=O)(=O)N3CCCC3)cc2)C(c2ccccc2)c2cc(Cl)ccc2N1 (stereo not given)	inconclusive: 0.999% [signal inhibitor]	
Cc1ccc(C(=O)c2cn(CC(=O)NCc3ccccc3)c3nc(C)ccc3c2=O)cc1	inconclusive: -2.19% [signal inhibitor]	
COc1ccc(CCN(C)CCCOc2ccc(S(=O)(=O)c3[nH]c4ccccc4c3C(C)C)cc2)cc1OC	inconclusive: 0.599% [signal inhibitor]	
Cc1cc(C)n(CC(=O)Nc2cc(F)ccc2F)c(=O)c1C#N	inconclusive: 4.2% [signal inhibitor]	
COc1cccc(C(=O)Nc2ccc3nc4n(c(=O)c3c2)CCCCC4)c1	inconclusive: 2.53% [signal inhibitor]	
Cc1nn(-c2ccc(N3CCCC3)nn2)c(C)c1CCC(=O)NCc1ccc(OC(C)C)cc1	inactive: 0.418%	
Cc1cc(N2CCN(S(=O)(=O)c3ccc4c(c3)OCCO4)CC2)n2ncnc2n1	inactive: -0.0728%	
CCOc1ccc(C(=O)N2CCN(CCc3ccccn3)CC2)cc1	inconclusive: 1.12% [signal inhibitor]	
CN1CCN(c2ncc3nc(-c4cccs4)c(=O)n(-c4ccccc4)c3n2)CC1	inactive: 1.17% [at 11.4 µM, scaled: untreated 0%, proteasome inhibitor 100%]	

— PubChem BioAssay AID445 (National Center for Advancing Translational Sciences (NCATS), 2006)
